Measured values from the supplement of paper PMC7826260.
Some of the results follow. Viral Rep nickase domains cut single-stranded DNA in vitro at 3 µM enzyme and 37 °C for 1 h; the strands have 90 letters, of which the middle is given. Uncut reads are compared with the no-enzyme pool on a log2 scale; uncut sequences lie near 0, cut ones below; no hit call is given. Reads are scaled to the total; uncut strands gain when others are lost, and binding without cutting may add a little.

The sequences below were run on T1, Rep nickase domain of tomato golden mosaic virus (assay: uncleaved DNA left, log2 of reads against the no-enzyme library (log2 ratio); higher = less cleavage (more negative = more Rep cleavage of the k-mer); sequences stand for … in CTCGTCCG…ACCGGAGA).
T1 sequence (residues 1-124 of Rep, tag left off): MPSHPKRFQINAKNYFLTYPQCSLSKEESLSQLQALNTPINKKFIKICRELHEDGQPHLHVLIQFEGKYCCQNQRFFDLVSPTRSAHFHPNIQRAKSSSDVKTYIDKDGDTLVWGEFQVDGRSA
Description: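 A pool of 90-nt single-stranded DNAs with seven random bases just before the constant AC of the nick site (name = the seven bases) was cut by 3 µM recombinant His6-SUMO-tagged Rep nickase domain (300 nM DNA, 50 mM HEPES pH 8.0, 50 mM NaCl, 1 mM MnCl2, 1 h, 37 °C, three replicates). Uncut DNA was amplified and sequenced.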

| Sequence | uncleaved DNA left (log2) |
| --- | --- |
| ACGTCCT | -0.0546 |
| AGAAAAT | 0.0389 |
| ATTCATC | -0.0191 |
| TGTGGGG | 0.0574 |
| GTTCGGC | 0.0701 |
| GATGAGA | 0.126 |
| TTGTCTC | -0.221 |
| ATTTTGT | -0.127 |
| CGTCCCG | -0.0281 |
| GAACTTC | -0.0595 |
| ATTAAAA | 0.0668 |
| CCAGAGG | 0.157 |
| AGATGAG | -0.00978 |
| CCTCAAA | -0.0715 |
| TCGCTCA | -0.169 |
| ACAATGT | 0.0362 |
| TCGGAGG | 0.29 |
| CGGCCCC | -0.025 |
| TTGACGT | -0.0318 |
| AAAAGAG | 0.0883 |

| Sequence | uncleaved DNA left (log2) |
| --- | --- |
| TCTTTCC | -0.107 |
| GCCGGGT | 0.121 |
| AGATTCG | 0.074 |
| TACCTCC | -0.0491 |
| GAATCAG | 0.0365 |
| TCATTAA | 0.0804 |
| TACTCTA | 0.0301 |
| CCAAAGC | 0.0552 |
| ATGATGC | 0.122 |
| GGAGCCG | 0.153 |
| TATATGT | -0.0655 |
| AACATGC | -0.104 |
| GGTCTGG | 0.0837 |
| GAATCGC | 0.0523 |
| GGTCAGA | 0.00537 |
| AAGATGT | 0.067 |
| ATTGAGT | 0.148 |
| TACCGTC | -0.088 |
| GCCACTG | -0.053 |
| ACCCCGT | -0.00187 |
